From PubChem BioAssay AID488969 (Vanderbilt High Throughput Screening Facility, 2010)
The full ranking holds about 110,000 compounds; the median of “z-score” is about -0.1, and the highest 2% start at about 2. The list shows a part of the results. Calls of active or inactive are those of the source.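 Rule for the calls: active = z-score in the third read window above 3 or below -3; inactive = the rest.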

The molecules below were run against Metabotropic glutamate receptor 8 (Rattus norvegicus) (UniProt P70579) (assay: rat mGluR8 modulators via GIRK flux, primary screen, cell-based, thallium flux, HTS (AID 488969)). Conditions: HEK293 rat mGluR8, GIRK (G protein-gated inwardly rectifying potassium channel) thallium flux, FluoZin2; at 10 µM; stronger effect = higher value; submaximal glutamate (EC20) added with thallium.
Chain of UniProt P70579 (P70579 whole entry, looked up): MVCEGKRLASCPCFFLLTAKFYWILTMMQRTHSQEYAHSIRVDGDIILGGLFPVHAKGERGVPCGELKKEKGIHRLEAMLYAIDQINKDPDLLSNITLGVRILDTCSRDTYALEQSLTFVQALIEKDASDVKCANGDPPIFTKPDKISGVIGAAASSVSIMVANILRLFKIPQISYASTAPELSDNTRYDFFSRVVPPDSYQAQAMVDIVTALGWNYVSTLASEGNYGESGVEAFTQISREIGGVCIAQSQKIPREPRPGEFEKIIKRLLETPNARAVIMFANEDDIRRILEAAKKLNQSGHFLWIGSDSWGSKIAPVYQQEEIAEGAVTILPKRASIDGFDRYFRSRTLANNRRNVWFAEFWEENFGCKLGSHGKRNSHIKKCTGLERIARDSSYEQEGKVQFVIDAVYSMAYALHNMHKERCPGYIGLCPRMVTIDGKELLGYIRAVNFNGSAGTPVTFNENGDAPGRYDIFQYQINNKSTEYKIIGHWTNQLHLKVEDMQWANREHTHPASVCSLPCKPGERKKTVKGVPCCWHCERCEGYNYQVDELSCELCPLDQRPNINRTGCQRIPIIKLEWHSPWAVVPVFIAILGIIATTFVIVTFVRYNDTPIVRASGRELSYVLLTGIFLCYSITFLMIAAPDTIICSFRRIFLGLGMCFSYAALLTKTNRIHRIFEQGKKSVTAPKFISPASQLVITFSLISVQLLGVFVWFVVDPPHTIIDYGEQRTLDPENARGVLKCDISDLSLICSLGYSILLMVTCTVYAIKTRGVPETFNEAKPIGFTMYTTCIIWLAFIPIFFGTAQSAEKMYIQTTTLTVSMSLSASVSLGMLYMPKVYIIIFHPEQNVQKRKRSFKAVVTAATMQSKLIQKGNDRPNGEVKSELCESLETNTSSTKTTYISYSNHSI

| Structure (SMILES) | z-score |
| --- | --- |
| N#C/C(=C/c1cn(-c2ccccc2)nc1-c1cccc(OCc2ccccc2)c1)C(=O)NCCCn1ccnc1 | 0.0997 |
| S=c1[nH]nc(-c2ccncc2)n1CC1CCCO1 (configuration not stated) | 0.903 |
| O=C(O)CCC(=O)N1CCc2cc(S(=O)(=O)N3CCN(c4ccc(F)cc4)CC3)ccc21 | -0.105 |
| CCN1C(=O)C(O)(CC(=O)/C=C/C=C/c2ccccc2)c2ccccc21 (configuration not stated) | -0.114 |
| Cc1ccc(NC(=O)c2ccco2)c(NC(=O)c2cccs2)c1 | 0.178 |
| Cc1ccc(S(=O)(=O)N2CCCC(C(=O)Nc3ccc(NC(=O)c4ccccn4)cc3)C2)cc1 (configuration not stated) | 0.114 |
| CCOc1cc(C)nc(N2CCN(C3CCCCC3)CC2)n1 | 0.806 |
| COc1cc(/C=C/C(=O)Nc2nnc(C(C)(C)C)s2)cc(OC)c1OC | -0.615 |
| Cc1cc(/C=N\NC(=O)COc2cccc3cccnc23)c(C)n1-c1ccc(Br)cc1 | -0.24 |
| O=[N+]([O-])c1ccc2nc(SCc3ccccc3Cl)sc2c1 | -0.183 |
| CCCn1nnc(NC(=O)COc2ccc(C3CCCCC3)cc2)n1 | 2.04 |
| c1ccc(-c2noc(CSc3nnnn3C3CCCCC3)n2)cc1 | -0.0529 |
| CC(=O)Nc1ccccc1Sc1ccc2c3c(cccc13)C(=O)N(c1ccc(C)cc1)C2=O | -0.0506 |
| COc1cccc(C2/C(=C(/O)c3ccc(C)cc3)C(=O)C(=O)N2Cc2ccco2)c1 (configuration not stated) | -0.755 |
| Cc1ccc(NC2=C(Cl)C(=O)OC2NC(=O)c2ccccc2)cc1 (configuration not stated) | -0.201 |
| COc1cccc(CN2C(=O)C3CCCN3c3ccc(S(=O)(=O)N4CCOCC4)cc32)c1 (configuration not stated) | -0.0456 |
| CCOC(=O)c1nnc2cc(-c3ccc(Br)cc3)nn2c1C | 0.295 |
| CCOc1cc(NC(=S)Nc2cccc(C)c2)c(OCC)cc1NC(=O)CC(C)C | -0.128 |
| Fc1ccc(Nc2nc(-c3ccncc3)nc3ccccc23)cc1 | -0.153 |
| COc1ccc(C2C(=O)c3ccccc3C2=O)c(OC)c1 | 0.409 |
| CN(C)C(=O)N1CCC(C(=O)NC2CCCCCCC2)CC1 | 0.0301 |
| COc1ccc(CCNS(=O)(=O)c2ccc(Cl)s2)cc1OC | 0.0415 |
| Cc1csc2nc(CNS(=O)(=O)N(C)C)cn12 | -0.402 |

| Structure (SMILES) | z-score |
| --- | --- |
| COC(=O)c1c(C(=O)OC)c(-c2ccccc2)n2c1CS(=O)(=O)C2 | -0.0648 |
| Cn1nc(C(=O)NCc2cccnc2)c2ccccc2c1=O | -0.0541 |
| COC(=O)c1sc(NC(=O)CSc2nc3cccnc3n2C2CCCCC2)nc1C | 0.268 |
| CCC(C)NC(=O)CO/N=C/c1ccc(C(=O)OC)cc1 (configuration not stated) | -0.0741 |
| COc1ccc(C(=O)N/C(=C\c2cccs2)c2nc3ccccc3[nH]2)cc1OC | 0.0502 |
| C=C(C)C1Cc2c(C)nn(-c3ccccn3)c2C1 (configuration not stated) | -0.83 |
| CCOC(=O)C1(C)C=C(Nc2ccc(OC)cc2)C(=O)N1c1ccc(OC)cc1 (configuration not stated) | -0.651 |
| CCN(CC)S(=O)(=O)c1ccc2c(c1)nc(CCC(=O)Nc1ccccc1Cc1ccccc1)n2CC | 0.282 |
| Cc1cccc(-c2noc(Cc3ccc(Cl)cc3)n2)c1 | 0.803 |
| COc1cc(C(c2c(C)[nH][nH]c2=O)c2c(C)[nH][nH]c2=O)ccc1OC(C)C | -0.109 |
| Cc1nc(C)c(C(=O)NNS(=O)(=O)c2ccccc2)s1 | -0.159 |
| CC(C)OC(=O)c1cc2c(ccn2C)n1CC(=O)N(Cc1ccccc1)c1ccc(F)cc1 | -0.00352 |
| CCOc1ccc(-c2nnn(CC(=O)c3cc(OC)ccc3OC)n2)cc1 | 1.52 |
| CNC(=O)c1sc(-c2ccccc2)nc1C | -0.396 |
| COc1ccc(-c2nnn(CC(=O)c3ccc4c(c3)OCCO4)n2)cc1OC | -0.406 |
| Cc1cccc(Cn2c(C(C)O)nc3ccccc32)c1 (configuration not stated) | -0.101 |
| COc1ccc(NC(=O)c2ccc(-n3cccn3)nc2)c(OC)c1 | -0.0705 |
| Oc1ccccc1C=NCC(O)c1ccccc1 (configuration not stated) | -0.103 |
| CCC1CCCCN1Cc1ccc(OC)c(C)c1 (configuration not stated) | 0.156 |
| CC(C)n1c(SCC(=O)Nc2nc3c(s2)CCCC3)nc2c1c(=O)n(C)c(=O)n2C | -2.43 |
| CCN(CC)c1nc2ccccc2[nH]1 | -0.16 |
| CC(C)Sc1oc(-c2ccco2)nc1S(=O)(=O)c1ccc(F)cc1 | -0.504 |
| COC(=O)CC(=O)CSc1nc(C)cc(C)c1C#N | -0.322 |

| Structure (SMILES) | z-score |
| --- | --- |
| O=C(Nc1cccnc1)c1coc(=O)c2ccccc12 | 0.0661 |
| N/C(=N\OC(=O)/C=C/c1ccccc1)c1ccccc1 | -0.187 |
| COc1cccc(NC(=O)Cn2c(-c3cncs3)nc3ccccc32)c1 | -0.793 |
| Cc1sc2nc(C3CC3)nc(SCC(=O)N3c4ccccc4CC3C)c2c1C (configuration not stated) | -0.291 |
| Cn1nc(-c2ccc(Cl)cc2)c2cc(C(=O)NCCCN3CCOCC3)sc21 | 0.386 |
| COc1ccc(S(=O)(=O)Nc2ccc(O)c(Sc3ncn[nH]3)c2)cc1 | -0.259 |
| O=C(Oc1cccc(Nc2ncnc3ccccc23)c1)c1ccccc1Cl | -0.889 |
| CNC(=S)N/N=C/c1c(C)nn(-c2ccccc2)c1Cl | 0.653 |
| CC(C)CNC(=S)NNC(=O)c1ccc2c(c1)OCO2 | -0.0533 |
| O=C(O)Cn1cc2c(n1)CCCCC2 | -0.117 |
| COc1ccc2c(c1)C=CC1(O2)N(CCO)c2ccccc2C1(C)C (configuration not stated) | -0.194 |
| Cc1nnc(NC(=O)c2ccc3c(c2)C(=O)N(CCC(C)C)C3=O)s1 | 0.243 |
| CCOC(=O)C(NC(=O)N(C)C)(Nc1sc(C)c(CC)c1C#N)C(F)(F)F (configuration not stated) | -0.268 |
| CCOc1cc(CNc2ccc(OC)cc2)cc(Br)c1OCC(=O)NC(C)(C)C | 0.0402 |
| CC(C)NC(=O)c1ccccc1S(=O)c1ccccc1C#N (configuration not stated) | -0.193 |
| COc1ccc(OC)c(S(=O)(=O)Nc2c(F)cccc2F)c1 | -0.268 |
| Cc1ccc(/C=C/C(=O)Nc2cccc3ncccc23)o1 | -0.328 |
| O=[N+]([O-])c1cccc2ccc(/C=C/c3cccc(Br)c3)nc12 | -0.182 |
| O=C(Oc1cccc2ccccc12)c1ccncc1 | -0.635 |
| Cc1ccc(S(=O)(=O)Nc2ccc(C(=O)OCC(=O)N(CCC#N)c3ccccc3)cc2)cc1C | -0.0779 |
| Cc1cc(C)c2c(-n3cccc3)n[nH]c2n1 | -0.122 |
| O=C(Nc1cccc(Cl)c1)c1ccc(NCC2CCCO2)c([N+](=O)[O-])c1 (configuration not stated) | -0.232 |
| Nc1nnnn1/N=C/c1ccco1 | -0.0269 |

| Structure (SMILES) | z-score |
| --- | --- |
| O=C(c1c(O)c2ccccc2oc1=O)C1CCC1 | 0.111 |
| O=C(COC(=O)CCC1CCCC1)Nc1ccc(Cl)cn1 | 0.0135 |
| COc1ccc(C2CC(c3c(-c4ccccc4)c4cc(Cl)ccc4[nH]c3=O)=NN2S(C)(=O)=O)cc1 (configuration not stated) | -0.172 |
| O=C(O)c1cccc(NC(=O)C2C3C=CC(C3)C2C(=O)O)c1 (configuration not stated) | -0.171 |
| CCNC(=S)Nc1nc2c(cc1C(=O)OCC)CCCC2 | active: 8.73 |
| COc1ccc(-n2c3c(cc(C(=O)Nc4ccc(C)cc4)c2=O)C(=O)CCC3)cc1 | 0.0839 |
| COc1ccc(Nc2nc(C)cc(C)c2C(N)=O)cc1 | -0.148 |
| COc1ccc2cnn(Cc3ccccc3)c(=O)c2c1OC | 0.037 |
| O=C1CC(c2ccccc2)CC(O)=C1C=NCc1ccc(Cl)c(Cl)c1 (configuration not stated) | 0.436 |
| COc1cc(C=NCC2OCCc3ccccc32)cc(OC)c1 (configuration not stated) | -0.22 |
| O=C(NCc1ccncc1)Nc1ccc(Cl)cc1Cl | -0.3 |
| O=C(Nc1ccccc1)c1ccc2c(c1)OCO2 | -0.0124 |
| COc1ccc(CNc2n[nH]c(NCc3ccc(OC)c(OC)c3)n2)cc1OC | 0.13 |
| C=CCN1C(=O)C(CC(=O)Nc2ccc(OC)cc2)N(Cc2ccco2)C1=S (configuration not stated) | -0.16 |
| COc1ccc(S(=O)(=O)N(CC(=O)O)c2ccccn2)cc1 | 1.42 |
| COc1ccc(NS(=O)(=O)c2ccc(Br)s2)cc1OC | 2.11 |
| CCCC(=O)OCCNc1cc(SCc2ccco2)c2nonc2c1[N+](=O)[O-] | 0.14 |
| O=C(c1ccc(-n2cccc2)cc1)N1CCN(Cc2ccccc2)CC1 | -0.138 |
| O=C(CN(C1CCCCC1)S(=O)(=O)c1ccc(F)cc1)NCc1ccncc1 | 0.0244 |
| CCCCNC(=O)c1ccccc1NC(=O)CN(c1ccccc1)S(=O)(=O)N(C)C | 2.11 |
| CCOC(=O)C(C)Sc1nnc(-c2c[nH]c3ccccc23)n1C (configuration not stated) | active: 4.19 |
| Cc1ccc(S(=O)(=O)NCCCNS(C)(=O)=O)cc1 | 0.0948 |
| CCc1c(C)c2c(C)[nH]nc2oc1=O | -0.453 |

| Structure (SMILES) | z-score |
| --- | --- |
| O=S(=O)(Cc1cc(Oc2ccccc2)nc(-c2ccccc2)n1)c1ccccc1 | -1.25 |
| CCN(CC)S(=O)(=O)c1cc(NC(=O)Cn2cnc3ccccc3c2=O)ccc1C | active: 3.32 |
| Cc1onc(-c2ccccc2)c1C(=O)NCC1COc2ccccc2O1 (configuration not stated) | -0.111 |
| COc1ccc(OC)c(/C=N/NC(=O)CCN2CCN(C(c3ccccc3)c3ccccc3)CC2)c1 | -0.329 |
| CCN1C(=O)c2ccccc2S(=O)c2ccc(C(=O)N3CCCCCC3)cc21 (configuration not stated) | -0.586 |
| CCN1CCc2nc(NC(=O)C(c3ccccc3)c3ccccc3)sc2C1 | -0.647 |
| O=C(O)CCCCC1SCC2NC(=O)NC21 (configuration not stated) | -0.163 |
| Cc1cccc(OCCCC(=O)Nc2ccccc2C(F)(F)F)c1 | -0.0942 |
| Cc1ccc2c(c1)C=CC(C)(C)S2=O (configuration not stated) | -0.163 |
| CCOC(=O)C1C(c2cc(OC)c(OC)c(OC)c2)NC(=S)NC1(O)C(F)(F)F (configuration not stated) | -0.494 |
| O=C(CNC(=O)Cn1cnc2sc3c(c2c1=O)CCCC3)NCc1ccccn1 | 0.515 |
| Cc1cccc(-c2n[nH]c(=S)n2Cc2ccccc2)c1 | 1.74 |
| Cc1c(NC(=O)c2ncn[nH]2)cccc1-c1nc2ccccc2s1 | 0.173 |
| CCC(N=c1cc(-c2ccc(OC)c(OC)c2)oc2ccc(C)cc12)C(=O)O (configuration not stated) | -0.185 |
| COc1ccc(CN(C#N)c2nc(SC)nc(N(C)C)n2)cc1 | -0.283 |
| Cc1ccc(C(=O)NNS(=O)(=O)c2ccccc2[N+](=O)[O-])cc1 | 0.000248 |
| COC(=O)c1ccc(NC(=O)c2ccccc2)o1 | -0.0143 |
| CC(Sc1n[nH]c(N)n1)C(=O)C12CC3CC(CC(C3)C1)C2 (configuration not stated) | -0.124 |
| COc1ccc(-c2cc(C(=O)OCC(=O)N(C)C)c3ccccc3n2)cc1 | -0.683 |
| O=C(CSc1nc(-c2ccco2)cc(C(F)(F)F)n1)Nc1ccccc1C(F)(F)F | -0.404 |
